# Test results: PubChem BioAssay (NCI)
# “And” between values parts separate entries of the source, which are not always exact repeats. Equal entries are not always repeated.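 Compound exposure: 48 hours, 5 concentrations, 96-well plates. GI50: concentration for 50% inhibition of growth. The concentration for full growth arrest is given as TGI.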
# Test system: NCI-H322M lung
# Experiment: growth of human tumour cells (NCI), 48 h
Compound,TGI,GI50
CCC/C=C/C=C/C(=O)OC1/C(=C/C(=O)OC)CC2CC(C(C)O)OC(=O)CC(O)CC3CC(OC(C)=O)C(C)(C)C(O)(CC4C/C(=C/C(=O)OC)CC(/C=C/C(C)(C)C1(O)O2)O4)O3 (configuration not stated),10.9 µM and 11 µM and > 12.5 µM,
O=c1cc(NNc2ccccc2)[nH]c(=O)[nH]1,40.2 µM,
Cc1c(C)c2cc3c(=O)c(CCl)coc3c(C)c2oc1=O,> 100 µM,
CC(=O)c1cc2c(Br)cccc2oc1=O,> 100 µM,
CCN(CC)CCC(=O)/C=C/c1ccc(Cl)c(Cl)c1,> 10 µM,
Nc1cc(C2CCCc3c2[nH]c2ccccc32)ccc1O (configuration not stated),> 100 µM,
COc1cc(/C=C2\C(=O)N(c3cccc(NC(C)=O)c3)C(c3ccccc3)S2(=O)=O)cc(OC)c1OC (configuration not stated),> 100 µM,
O=C(O)c1ccc2c(O)c(O)ccc2c1,64.3 µM,
O=C1c2ccccc2C(=O)N1c1ccc(Cc2ccc(N3C(=O)c4ccccc4C3=O)cc2)cc1,> 100 µM,
COCN1COCN(C)C1=O,> 100 µM,
O=C1OC(c2ccc([N+](=O)[O-])cc2)=N/C1=C\c1ccc(Cl)cc1,> 100 µM,
N=c1oc2cc(O)ccc2cc1C(=O)Nc1ccccn1,> 100 µM,
NCC(=O)Nc1ccc(Cl)cc1C(=O)c1ccc[nH]1,> 100 µM,
C=CCCC(O)c1cc(C)c(O)c(C)c1 (configuration not stated),> 100 µM,
CCOC(CBr)OC1C(=O)OCC1(C)C (configuration not stated),> 100 µM,
CCc1nc(N)nc(N)c1C#CC(C)c1ccc(-c2ccncc2)cc1Cl (configuration not stated),6.53 µM and 16.5 µM,0.0363 µM and 0.208 µM
Cc1[nH]n(-c2nc(-c3ccccc3)cc(=O)[nH]2)c(=O)c1CCO,> 100 µM,
O=S1(=O)OCCOS(=O)(=O)C1(F)Cc1ccccc1,> 100 µM,
COc1ccc(-c2cc(-c3ccc(C)cc3)n(C3OC(COC(C)=O)C(OC(C)=O)C(OC(C)=O)C3OC(C)=O)c(=S)c2C#N)cc1 (configuration not stated),> 100 µM,
CN(c1cccc(C(=O)O)c1)c1cc(O/N=[N+](\[O-])N(C)C)c([N+](=O)[O-])cc1[N+](=O)[O-],> 100 µM,> 100 µM
Cn1cc(-c2ccc3c4ccccc4n(C)c3c2)c2ccccc21,> 100 µM,
CN(C)CCCNc1ccnc2c([N+](=O)[O-])cccc12,35.9 µM,
CCN(Cc1cc(Cl)cc(C)c1O)Cc1c(O)ccc2ccccc12,32.4 µM,
N=C1OC(CN2CCN(c3ccccc3)CC2)CN1C(=O)Nc1ccccc1 (configuration not stated),> 100 µM,
CNC(=O)[C@H](Cc1c[nH]c2ccccc12)NC(=O)[C@@H](CC(=O)NO)CC(C)C,> 25 µM,> 25 µM

Compound,TGI,GI50
CCN1C(=O)N(CC)C2C1NN=c1s/c(=C3\C(=O)Nc4ccccc43)c(=O)n12 (configuration not stated),> 100 µM,0.764 µM
CCCC(=O)OCC1OC(n2cc(F)c(=O)[nH]c2=O)CC1OC(=O)CCC (configuration not stated),> 10 µM,
O=C(CC(C(=O)c1ccsc1)c1cccs1)c1ccccc1 (configuration not stated),> 100 µM,
O=C(COc1cc(=O)oc2ccccc12)c1ccccc1,> 100 µM,
CCCCn1c(=O)[nH]c2c(N)ncnc21,> 100 µM,
O=C1C=C(NCCc2ccc(O)c([N+](=O)[O-])c2)C(=O)c2[nH]cnc21,63.1 µM,
CC1=C[P+](c2ccccc2)(c2ccccc2)c2ccccc2O1,65 µM,
CC(=O)OCC1OC(n2c(C)c(C)cc(C#N)c2=S)C(OC(C)=O)C(OC(C)=O)C1OC(C)=O (configuration not stated),> 100 µM,
C(=N\NC1=NCCCCN1)/c1ccc2ccccc2c1,> 100 µM,
CCCC(=O)Oc1ccc(/C(=C(\C)c2ccc(Cl)cc2)c2ccc(OCCN(CC)CC)cc2)cc1,12.3 µM,3.17 µM
Cc1ccc([N+](=O)[O-])cc1S(=O)(=O)Nc1ccc(C2=NN(S(=O)(=O)c3cc([N+](=O)[O-])ccc3C)C(c3cccs3)C2)cc1 (configuration not stated),> 100 µM,
O=C(c1ccc(Cl)cc1Cl)N1CCN(C(=O)c2ccc(Cl)cc2Cl)C1=S,41.4 µM,18.1 µM
O=C(CCCc1cccc2[nH]c3c(c12)CN(Cc1ccccc1)CC3)c1ccc(F)cc1,> 100 µM,
ClCCCN1CCN(CCCl)CC1,> 1000 µM,
O=C(Nc1cc(Cl)c(I)c(Cl)c1)C(F)(F)F,78.3 µM,
O=C(O)/C=C/c1c2ccc(=O)c(O)c-2oc2c(O)c(O)ccc12,> 100 µM,
COC(=O)c1csc(-c2csc(CCNC(=O)OC(C)(C)C)n2)n1,> 100 µM,
N#CC1=C(N)NC(=O)C(C#N)C12Nc1ccccc1S2 (configuration not stated),> 100 µM,> 100 µM
COc1ccccc1/C=C1\C(=O)N(C(=O)Cc2ccccc2)N=C1C,> 100 µM,
CCC1(CC)C(=O)NC(=O)NC1=S,> 100 µM,
Cc1ccc(C(=O)Nc2ccc(S(=O)(=O)O)c3cc(S(=O)(=O)O)cc(S(=O)(=O)O)c23)cc1NC(=O)c1cccc(NC(=O)Nc2cccc(C(=O)Nc3cc(C(=O)Nc4ccc(S(=O)(=O)O)c5cc(S(=O)(=O)O)cc(S(=O)(=O)O)c45)ccc3C)c2)c1,> 100 µM,
Nc1nnc(N)n1N,> 100 µM,
CN1C/C(=C\c2cccs2)C2=NN(c3ccccc3)C(c3cccs3)C2C1 (configuration not stated),> 100 µM,
CCOP(=O)(OCC)C(c1ccc(F)cc1)N(C(=O)NC(F)(F)F)c1ccc(F)cc1 (configuration not stated),> 100 µM,
O=C1c2c(c3c4cc(F)ccc4oc3c3[nH]c4ccccc4c23)C(=O)N1O,> 100 µM,4.23 µM

Compound,TGI,GI50
COc1c(C(=O)/C(=N/Nc2ccc(C(=O)O)cc2)C(C)=O)c(O)cc2occc12,> 100 µM,
CC1=CC(=O)NP(=O)(Oc2ccc(Cl)cc2)N1 (configuration not stated),> 100 µM,
N#CN1CC[C@@H]2CC3(CCC2C1)OCCO3 (some centres not stated),> 100 µM,
CN(C)S(=O)(=O)c1cccc(C(=O)Nc2nc(-c3ccc(F)c(F)c3)cs2)c1,> 100 µM,26.6 µM
COc1ccc(C2=Nn3c(nnc3-c3ccc(F)c(Cl)c3)SC2)cc1,> 100 µM,> 100 µM
N[C@H]1CCC[C@@H](O)C1O (some centres not stated),> 100 µM,
CC(C)(C)c1cc(C2c3cc4c(cc3OC(O)(CO)C2C(=O)O)OCO4)cc(C(C)(C)C)c1O (configuration not stated) (tested in a mixture with another compound),27.8 µM,
CC1(Cl)C(=O)NC(=O)N([C@H]2C[C@H](O)[C@@H](CO)O2)C1N=[N+]=[N-] (some centres not stated),> 100 µM,
COc1ccc(-n2nc(C)c3c(Nc4ccc(NC(=O)Nc5cccc(C(F)(F)F)c5)cc4)ncnc32)cc1,3.96 µM,1.7 µM
Nc1cc(OCC2CCCCC2)nc(N)n1,> 100 µM,
O=[N+]([O-])c1ccc2c(c1)nc1n2C(c2c(F)cccc2F)SC1 (configuration not stated),> 100 µM,
COc1ccc(SCc2cc(OC)ccc2OC)cc1,> 100 µM,
CCN(Cc1ccc(Cl)c(Cl)c1)c1ccc2nc(N)nc(N)c2c1C,2.27 µM,< 0.0264 µM
COc1ccc(N2C(=O)C3ON(Cc4ccc(CC(N)=O)cc4)C(c4c5ccccc5c(C)c5ccccc45)C3C2=O)cc1 (configuration not stated),> 100 µM,
COC(=O)[C@@]12CSC[C@]1(C(=O)OC)N[C@@H](c1ccccc1O)C2,> 100 µM,
S=C1SCC2CCCN12 (configuration not stated),> 100 µM,
CC1=NNC(=O)C1C1(C(=O)O)CC(c2c[nH]c3ccccc23)=NC(=S)N1 (configuration not stated),> 100 µM,
CC(C#N)(NO)C(C)(C#N)NO (configuration not stated),> 100 µM,
Cc1cc2ncn(CC(=O)O)c2cc1C,> 100 µM,
N=c1oc2ccc3ccccc3c2cc1-c1nc2ccccc2c(=O)[nH]1,> 100 µM,
O=c1c(NCc2ccccc2)c(C2(c3ccccc3F)SCCCS2)c1=O,> 100 µM,
COc1ccc(/C=C\c2cc(OC)c(OC)c(OC)c2)cc1NC(=O)/C=C/c1ccc(OC)c(OC)c1,> 100 µM,> 100 µM
COc1ccc(-c2cc(=O)c3c(O)c(O)c(OC)cc3o2)cc1O,> 100 µM,
O=C1/C(=C/c2cccc([N+](=O)[O-])c2)N=C(c2ccccc2)N1c1nc2ccc(Sc3ccccc3)cc2[nH]1,> 100 µM,
